Over roughly 33,000 sequences, “E-score (-0.5 to 0.5)” has its median near -0.012; the highest 2% begin near 0.27. This is one part of the list.

This assay addresses T1, Vhr1 (UniProt P40522).
T1 sequence: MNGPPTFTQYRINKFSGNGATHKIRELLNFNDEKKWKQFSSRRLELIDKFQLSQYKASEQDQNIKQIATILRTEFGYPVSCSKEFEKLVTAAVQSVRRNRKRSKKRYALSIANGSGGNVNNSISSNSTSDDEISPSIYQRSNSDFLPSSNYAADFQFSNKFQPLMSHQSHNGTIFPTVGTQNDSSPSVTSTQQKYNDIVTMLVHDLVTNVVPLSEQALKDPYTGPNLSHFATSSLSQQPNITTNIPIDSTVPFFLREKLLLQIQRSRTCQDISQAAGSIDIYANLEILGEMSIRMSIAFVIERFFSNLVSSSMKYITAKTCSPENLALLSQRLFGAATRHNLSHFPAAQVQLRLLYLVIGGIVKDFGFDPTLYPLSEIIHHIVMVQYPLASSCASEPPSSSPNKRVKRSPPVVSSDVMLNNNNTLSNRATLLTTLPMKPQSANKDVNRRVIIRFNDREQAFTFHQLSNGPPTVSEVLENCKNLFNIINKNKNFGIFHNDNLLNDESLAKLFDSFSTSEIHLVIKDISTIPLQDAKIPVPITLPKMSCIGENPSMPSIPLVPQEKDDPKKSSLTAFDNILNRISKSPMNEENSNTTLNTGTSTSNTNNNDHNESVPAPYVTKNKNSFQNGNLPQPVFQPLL
Nature of the assay: PBM E-score (8-mer binding enrichment) (E-score (-0.5 to 0.5)); higher = stronger / more preferred TF binding; most listed sequences are background and not binding sites. The note with it: protein concentration: 200 nM; construct: GST-full length. The method, then:
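Universal 'all 10-mer' protein binding microarrays (Agilent AMADID 015681) probed with GST-tagged S. cerevisiae TFs (full-length or DBD) made by in vitro transcription/translation (PURExpress), about 100-200 nM. Bound TF was detected with fluorescent anti-GST. Each ungapped 8-mer (which stands for itself and its reverse complement) is scored by the PBM enrichment score (E-score), a modified Wilcoxon-Mann-Whitney statistic from -0.5 to +0.5, computed with the Universal PBM Analysis Suite. Scale: above 0.35 generally sequence-specific binding.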
With GCGAGAAC, the “PBM E-score” value is -0.0264.
As for GCATCCGA, the figure is -0.207; as for AGTCGACC, -0.0312.
As for ATGGGCAG, the “PBM E-score” value was found to be 0.0732.
Consider CCCGAAGA, for which the “PBM E-score” value was -0.172.
As for CCAAACGA, the figure is 0.00579; as for GCCTAGGA, -0.3.
As for CAATTGAG, the figure is 0.0674; as for CTGCTTGC, -0.0439; as for ACACCCCG, 0.0533.
Under ACAGCACA stands 0.221.
As to CGGCTTTA, the “PBM E-score” value was -0.0613.
As for GCCCCGCA, the figure is -0.0969.
As for ACTTAGCT, the figure is -0.177; as for ATCTGTAA, 0.0177; as for AACTAACG, 0.0239.
Regarding ACCTGTCT, the “PBM E-score” value was found to be 0.0957.
For ACGGAGCT, the “PBM E-score” value is -0.246.
As for ATTTTCTG, the figure is -0.157; as for AAGCCCCA, -0.165; as for ATAACTGC, -0.0668.
As to AGCAAGTC, the “PBM E-score” value stood at 0.121.
Consider ATCTATCG, for which the “PBM E-score” value is -0.0852.
Under GGACTAAA stands -0.248; under CGATCGGC, 0.0035.
Under AAAGTCGC stands 0.137; under AATCAGAG, 0.0674.
CGGACTGA: the “PBM E-score” value is 0.152.
In the case of GTAACACA, the “PBM E-score” value stood at 0.145.
In the case of AACAGTAG, the “PBM E-score” value is 0.0386.
As for CGCCCCTA, the figure is 0.0695.
As to CAAGAGAA, the “PBM E-score” value is -0.112.
As for ACGACGTC, the figure is -0.0838; as for CGTACTGA, 0.0639.
As for GTTGATGA, the figure is 0.184; as for TATATAAA, 0.112.
Regarding ACCTCACC, the “PBM E-score” value was determined as 0.0749.
As for CATTCTCA, the figure is 0.169; as for ACTCATGA, 0.369; as for CACGGCCG, 0.118.
Under GATTTTGA stands 0.0345.
Under AATTTATG stands 0.0668; under AGGACGAC, -0.0774; under CATACGCA, 0.133.
As for TATAATAA, the “PBM E-score” value was -0.101.
Under AGACCTTA stands 0.0612.
As for AGATTACG, the figure is 0.0146; as for TTTCCAAA, -0.277; as for CCAATGGG, -0.103.
Consider CACGTTCC, for which the “PBM E-score” value worked out at 0.00696.
As for ACCGGTTC, the “PBM E-score” value was -0.221.
As to CATCTAGC, the “PBM E-score” value was -0.146.
As for ATGAAGCG, the “PBM E-score” value is -0.136.
As for CGCGACGA, the figure is 0.0448.
As for CAAGCTAG, the figure is -0.166.
On to CAAACACA, for which the “PBM E-score” value stood at 0.17.
Regarding AGGTCGCC, the “PBM E-score” value is -0.21.
As to AGAGTAGA, the “PBM E-score” value is -0.324.
Under CGAAAATA stands -0.0529; under GAGAGTTA, -0.0165; under ATCTCTTC, -0.171.
For the sequence ACTCGCGC, the “PBM E-score” value was 0.273.
In the case of AGATCAGC, the “PBM E-score” value came to 0.0954.
As for CCATTACC, the “PBM E-score” value was found to be 0.0744.
As for AAACTTAT, the figure is 0.153.
Turning to AGGCAAGA, the “PBM E-score” value is -0.192.
In the case of TGGGTCAA, the “PBM E-score” value amounted to 0.147.
Regarding CTTTATTA, the “PBM E-score” value stood at 0.00555.
As for CGACGACG, the figure is -0.181; as for CATCCGCA, 0.0314; as for GTGTTGGA, -0.0315.
As for CACCTTAA, the “PBM E-score” value is -0.0968.
Under CGGGTCAA stands 0.0718; under CATCGTAC, 0.105.
As for GTCGACAC, the figure is 0.127; as for TACGTAAA, -0.293.
Regarding AATTATGG, the “PBM E-score” value was -0.112.
TGGTCAAA: the “PBM E-score” value was -0.123.
As to CCAGCCCC, the “PBM E-score” value came to 0.0424.
As for TGTGAACA, the figure is 0.095; as for AACTAAGG, -0.0856.
As for CGACCCTC, the figure is -0.0226.
Under GGCTTTGA stands -0.188.
Consider AAGGCGTG, for which the “PBM E-score” value was -0.0528.
Under GACGCCCA stands 0.131; under AGGCGAAC, -0.144.
Regarding GAGAAGCA, the “PBM E-score” value is -0.0414.
As for CTAATAAA, the “PBM E-score” value came out at 0.0021.
As for CCGTTAGG, the figure is -0.201; as for AGGCCAAT, -0.175; as for AGCTAACA, -0.0232.
Under CAATAGAC stands 0.116; under ATCCCTAC, 0.0917; under GAGAGGGA, -0.34.
As for ACATCCCA, the figure is -0.105; as for CAAGTCCG, -0.138.
Regarding AAATATGT, the “PBM E-score” value stood at 0.0267.
Under AAAATACT stands 0.00078; under AGGTCTAA, -0.0405; under ACATGCCC, -0.0385.
As for CCCGTAGA, the figure is -0.176.
Under ACCACGGT stands -0.152; under ACAATCGC, 0.146; under GTCAGCGA, -0.0325.
As for AATCAGGG, the “PBM E-score” value worked out at 0.133.
ACGGGACG: the “PBM E-score” value was -0.169.
For the sequence GCACCCCA, the “PBM E-score” value amounted to 0.151.
As for ATGAATTG, the figure is 0.0034.
As for ATATTCAG, the figure is 0.17.

Values taken from the supplement of paper PMC3334620.
